Data on 54 compounds can be found in ChEMBL document CHEMBL4888484, “Replenishing the malaria drug discovery pipeline: Screening and hit evaluation of the MMV Hit Generation Library 1 (HGL1) against asexual blood stage Plasmodium falciparum ,using a nano luciferase reporter read-out” (2022).

Hit rate of the full screen: of about 150,000 compounds, about 540 (0.36%) showed an effect of 50% or more. This is one part of the list.

The test concerns Plasmodium falciparum. Briefly: Primary screen in NF54 nanoGlo assay, in single point, at 2uM, 72h; a lower Z score goes with more inhibition. In kind it is functional, Erythrocyte. As to conditions: timepoint 72 hour.
In general, % Inhibition refers to the relative decrease from the control value, in per cent. Regarding `Cc1nnc(NC(=O)[C@H]2CCCN(C(=O)c3cccs3)C2)s1`, the “% Inhibition” value worked out at 3% and the Z score was -0.35.
For `Cc1nnc(COC(=O)c2ccc3noc(-c4ccccc4)c3c2)o1`, the “% Inhibition” value is reported as -13% and the Z score stood at 2.11.
With `c1ccc(C2=NN(c3ccccc3)[C@H](c3cccc4nccnc34)C2)cc1`, the “% Inhibition” value is on record as 0% and the Z score came out at 0.06.
Take `COc1ccc2[nH]cc(C(=O)N[C@H]3COCC[C@@H]3O)c(=O)c2c1`: the “% Inhibition” value was -6% and the Z score amounted to 0.97.
In the case of `Cc1ccc(CCC(=O)N[C@@]2(CCO)CCOC2)s1`, the “% Inhibition” value is on record as 6% and the Z score was -0.77.
Take `O=C(NCC(=O)N1CCN(c2nccn3nc4c(c23)CCCC4)CC1)OCc1ccccc1`: the “% Inhibition” value amounted to 4% and the Z score was -0.52.
Consider `O=C(Nc1ccc(-c2ccccn2)cn1)c1cncc(O)c1`, for which the “% Inhibition” value is listed as -14% and the Z score is reported as 1.29.
For `CN1C(=O)C[C@@H](C#N)[C@@H]1c1cnn(Cc2ccccc2)c1`, the “% Inhibition” value is on record as 25% and the Z score is listed as -2.87.
For `COc1ccc(Cc2nc(-c3ccc4c(c3)[nH]c(=O)n4C(C)C)no2)cc1`, in that order: -1% and 0.23.
In the case of `COC(=O)C1(NC(=O)[C@H]2CCCO2)CCC1`, the “% Inhibition” value was -18% and the Z score stood at 2.62.
Take `Cc1c(C(=O)N2CCNC(=O)C2)sc2ncnc(NCc3cc4ccccc4s3)c12`: the “% Inhibition” value is given as -14% and the Z score was 1.58.
Regarding `Cc1nc2c([nH]1)CN(C(=O)COC(C)C)CC2`, the “% Inhibition” value turned out to be 8% and the Z score is given as -1.49.
For `C[C@@H](CN(C)CCO)NCc1cccc(F)c1`, in that order: -6% and 1.09.
For `CO[C@H]1CCOC[C@@H]1NC(=O)c1ncc(F)cc1F`, in that order: 0% and -0.03.
In the case of `O=C(Cc1cccc(Br)c1)N[C@H]1CCCNC1`, the “% Inhibition” value is -4% and the Z score was determined as 0.44.
Turning to `O=C(NCc1cc(F)cc(F)c1)c1nn[nH]c1Nc1ccccc1F`, the “% Inhibition” value is on record as -6% and the Z score turned out to be 0.72.
For `C[C@H]1CN(CC(=O)NCCc2ccc(F)cc2)CC[C@]1(O)C1CC1`, in that order: -11% and 1.46.
As to `CCNC(=O)[C@H](C)NC(=O)OCc1ccc(Cl)cc1`, the “% Inhibition” value is listed as -2% and the Z score is reported as 0.33.
Regarding `CC(=O)N1CCN(Cc2nc(-c3ccc4c(c3)CC(=O)N4C)c(C)s2)CC1`, the “% Inhibition” value stood at 26% and the Z score is reported as -3.74.
On to `Cc1cc(CC(=O)N[C@@](C)(CC(=O)O)c2ccc(F)cc2)no1`, for which the “% Inhibition” value turned out to be 11% and the Z score is reported as -1.42.
Consider `C[C@H]1c2nncn2CCN1C(=O)c1ccc2scnc2c1`, for which the “% Inhibition” value stood at 0% and the Z score came to 0.02.
With `O=S(=O)(c1ccc2nc(N3CCN(Cc4ccc5c(c4)OCO5)CC3)cnc2c1)N1CCCCC1`, the “% Inhibition” value was -7% and the Z score came out at 1.21.
As to `Cc1ccnc(N(C)[C@H]2CCN(c3ccccc3)C2=O)n1`, the “% Inhibition” value is -5% and the Z score was found to be 0.68.
For `O=C(c1cc(-c2ccccc2)on1)N1CCc2[nH]cnc2C1`, in that order: -1% and 0.26.
On to `Cc1nc(N2CCC(N3CCc4ccccc4C3)CC2)c2cnn(C)c2n1`, for which the “% Inhibition” value is -2% and the Z score is reported as 0.48.
Regarding `CCC(=O)N1CCC[C@@](NCc2c(C)nn(C)c2C)(c2nnnn2C2CCCC2)C1`, the “% Inhibition” value is -19% and the Z score is reported as 2.49.
As for `CCN(C(C)=O)c1nc(CN2CCC[C@H]2c2cnn(C)c2)cs1`, the “% Inhibition” value stood at 11% and the Z score is recorded as -2.05.
For `Cn1cc(CN(CCO)C(=O)c2ccc3nc(-c4ccccc4)cn3c2)cn1`, the “% Inhibition” value is on record as -10% and the Z score stood at 1.55.
Consider `Cc1c[nH]c(CNS(=O)(=O)N2CCCC2)c(C)c1=O`, for which the “% Inhibition” value was -2% and the Z score turned out to be 0.28.
Regarding `CC(C)Oc1ccc([C@@H](O)CNC(=O)C(C)(C)C)cc1`, the “% Inhibition” value is recorded as -4% and the Z score amounted to 0.58.
As for `COc1ccc2nnc(CNC(=O)c3cnc(C)cn3)n2n1`, the “% Inhibition” value worked out at 23% and the Z score is given as -2.92.
Regarding `COc1cccc(NC(=O)NC2CS(=O)(=O)C2)n1`, the “% Inhibition” value is reported as -4% and the Z score is 0.89.
For `CC1=NN(C2CCS(=O)(=O)C2)C(=O)C1C(=O)c1cn(C)c2ccccc12` (stereo not drawn), in that order: 6% and -1.18.
For `Cn1nc(-c2ccc(Cl)cc2)c2cc(C(=O)O)sc21`, the “% Inhibition” value is given as -8% and the Z score is reported as 1.34.
For the compound `Cc1c(Cl)ccc2c1N(C(=O)c1ccn(C)c(=O)c1)CCC2`, the “% Inhibition” value is recorded as 6% and the Z score is recorded as -0.69.
Regarding `Cc1ccc2c(=O)n(CC3(Cn4cccn4)CC3)cnc2c1C`, the “% Inhibition” value was -18% and the Z score is recorded as 1.61.
Take `Cc1cc(C)c2[nH]c(C(=O)NC3CCN(C[C@H]4CCCO4)CC3)c(C)c2c1`: the “% Inhibition” value is recorded as -12% and the Z score worked out at 1.83.
Turning to `O=S(=O)(Nc1ccc(-c2cc3cc(F)ccc3[nH]2)cc1)c1cccc(F)c1`, the “% Inhibition” value was -5% and the Z score is listed as 0.86.
For `Cc1noc([C@H]2CCN(c3nc4cc(Br)ccc4o3)C2)n1`, the “% Inhibition” value is on record as -4% and the Z score is on record as 0.62.
For `N#Cc1cnc(N2CC[C@H](N3CCCCC3)C2)nc1N`, in that order: -20% and 2.33.
Consider `Cc1ccnc(-n2cc(S(=O)(=O)NCc3ccc(S(N)(=O)=O)cc3)cn2)c1`, for which the “% Inhibition” value came out at 31% and the Z score was -3.45.
For `N#Cc1c(F)cccc1OC[C@H]1C[C@@H](O)C1`, in that order: -11% and 1.53.
With `COc1cnc(NC(=O)NC[C@@H](C)CCO)nc1`, the “% Inhibition” value is recorded as -10% and the Z score is 1.4.
For `CC1(C)CCCN(C(=O)c2csc(NC(=O)c3cccc(C(F)(F)F)c3)n2)C1`, in that order: 6% and -0.95.
For the compound `CCc1nc(CN(C)c2nc(N)nc3ccc(C(=O)O)cc23)no1`, the “% Inhibition” value came to 13% and the Z score is on record as -1.24.
As for `CC(C)(C)c1cc(NS(=O)(=O)c2ccc3c(c2)C(=O)NCC3)[nH]n1`, the “% Inhibition” value is given as 4% and the Z score is -0.57.
Turning to `COCc1n[nH]c(-c2cnc3ccc(F)cc3c2)n1`, the “% Inhibition” value was found to be 6% and the Z score was -1.09.
For `Cc1ccc2cc1Oc1cccc(c1)CO[C@H]1CN(c3cc(N(C)C)ncn3)C[C@@H]1NC(=O)CN(C)C2=O`, in that order: -3% and 0.52.
Consider `CC(C)NC(=O)CN(C)Cc1noc(C(C)(C)C)n1`, for which the “% Inhibition” value worked out at 8% and the Z score is -1.1.
Turning to `COCCCOC1CN(c2cccc(C#N)n2)C1`, the “% Inhibition” value is on record as -12% and the Z score was 1.49.
In the case of `Cc1nonc1NC(=O)COc1c(F)c(F)c(F)c(F)c1F`, the “% Inhibition” value was -14% and the Z score is 1.58.
For the compound `O[C@H]1CCCN(Cc2cc3c(cc2Br)OCCCO3)C1`, the “% Inhibition” value is given as -7% and the Z score is listed as 0.88.
For `Cc1[nH]c2ncnc(NC(=O)C3CCC(F)(F)CC3)c2c1C`, in that order: -10% and 1.
As for `Cc1cc(-n2cnnn2)cc(NC(=O)NCCc2ncnn2C)c1C`, the “% Inhibition” value was -11% and the Z score turned out to be 2.04.
